Laboratory results as given in PubChem BioAssay AID1745853 (National Center for Advancing Translational Sciences (NCATS), 2022).
The other results are listed elsewhere or left out. These are further read-outs of the screen, such as a control signal, another cell line or another target. No call is given for them.

Legend:
Experiment in all cases: Primary Screen for Target Class Profiling of Small Molecule Inhibitors of Methyltransferases
[1] = biological target: Glycine N-methyltransferase (Homo sapiens) (UniProt Q14749); settings: purified enzyme, MTase-Glo SAH luminescence; measured here: GNMT inhibition; at 40 µM; stronger effect = lower value
Outline: (§1)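 Each enzyme was assayed with SAM and its substrate. SAH formation detected by MTase-Glo luminescence; single-point 40 uM screen[…].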

[2] = biological target: Guanidinoacetate N-methyltransferase (Homo sapiens) (UniProt Q14353); settings: purified enzyme, MTase-Glo SAH luminescence; measured here: GAMT inhibition; at 40 µM; stronger effect = lower value
Outline: as §1

[3] = biological target: Histamine N-methyltransferase (Homo sapiens) (UniProt P50135); settings: purified enzyme, MTase-Glo SAH luminescence; measured here: HNMT inhibition; at 40 µM; stronger effect = lower value
Outline: as §1

[4] = biological target: Nicotinamide N-methyltransferase (Homo sapiens) (UniProt P40261); settings: purified enzyme, MTase-Glo SAH luminescence; measured here: NNMT inhibition; at 40 µM; stronger effect = lower value
Outline: as §1

[5] = biological target: Phenylethanolamine N-methyltransferase (Homo sapiens) (UniProt P11086); settings: purified enzyme, MTase-Glo SAH luminescence; measured here: PNMT inhibition; at 40 µM; stronger effect = lower value
Outline: as §1
% is set by controls: 0 for no effect and ±100 for the full control effect.

| SMILES | activity change, negative = inhibition [1] [%] | activity change, negative = inhibition [2] [%] | activity change, negative = inhibition [3] [%] | activity change, negative = inhibition [4] [%] | activity change, negative = inhibition [5] [%] |
| --- | --- | --- | --- | --- | --- |
| Cc1ccc(C)c(N2C(=O)c3cc4oc(C)cc4n3CC2(C)C(=O)NC2CCCCCC2)c1 (stereo not drawn) | -1.04 | 0 | -4.49 | 2.05 | -1.01 |
| COc1ccc(CNC(=O)C[C@@H]2O[C@H](Cn3cc(CN(C)Cc4ccccc4)nn3)[C@@H](O)[C@H]2O)cc1 | -3.84 | -5.65 | -2.88 | -5.38 | -3.75 |
| CC(C)=CCC/C(C)=C/COCC1OC(n2ccc(=O)[nH]c2=O)C(O)C1O (stereo not drawn) | 0.145 | 2.27 | 9.1 | -9.47 | -5.58 |
| O=C(O)C1CCCNC1 (stereo not drawn) | 2.22 | 5.54 | 4.72 | -6.26 | -0.369 |
| O=C(Cc1ccc(F)cc1)N1CCC2(COc3ccncc3[S+](=O)([O-])N2)C1 (stereo not drawn) | -4.01 | -4.78 | -3.04 | -5.53 | -1.92 |
| Cc1ccc(CNC(=O)CSc2nnc3n(CC(C)C)c(=O)c4ccc(C(=O)NC(C)C)cc4n23)cc1 | -4.12 | -11.1 | 4.58 | -4.91 | -5.63 |
| CCC(C(=O)NC(=O)NC(C)=O)c1ccccc1 (stereo not drawn) | -1.48 | 1.73 | 5.96 | -9.05 | 0.756 |
| CN(C)c1nc(NC2CCC(NC(=O)c3ccc(F)c(F)c3)CC2)nc2ccccc12 (stereo not drawn) | 2.7 | 14.3 | -62.9 | -35.9 | -13.1 |
| CCCN1C(=O)c2c(C(=O)NCc3ccc(F)cc3)ncn2CC1(C)C(=O)NCc1ccc(F)cc1 (stereo not drawn) | 2.71 | 0 | 5.16 | 0.544 | 5.83 |
| CCOc1ccc(C(=O)Cn2nc3n(CCC(C)C)c(=O)c4ccc(C(=O)NC(C)C)cc4n3c2=O)cc1 | 2.07 | 0 | 0.723 | -1.71 | 1.96 |
| CCCN1C(=O)c2cc(C(=O)NCc3ccc(OCC)cc3)nn2CC1(C)C(=O)NC1CCCC1 (stereo not drawn) | -5.08 | 0.6 | -3.35 | -8.89 | -7.97 |
| COc1ccc(Cn2c(=O)c3ccccc3n3c(-c4ccc(C)cc4)nnc23)cc1 | -2.3 | 0 | 8.13 | 2.22 | 1.34 |
| Cc1ccc(Cn2c(=O)c3ccccc3n3c(CCC(=O)N4CC=C(c5ccccc5)CC4)nnc23)cc1 | -4.71 | 0 | -1.27 | -8.39 | -2.9 |
| CC(C)Cn1c(=O)c2cc(F)ccc2n2c(SCC(=O)Nc3ccccc3Cl)nnc12 | -6.12 | 0 | 5.46 | -5.77 | 1.26 |
| CCCCNC(=O)C1CCc2sc(C(=O)N3CCCCC3)cc2C1 (stereo not drawn) | -3.57 | 1.05 | -0.156 | -6.6 | -1.45 |
| Cc1ccc(CNC(=O)N2CCCCCNC(=O)[C@@H]3CCC[C@@H]32)cc1 | -7.02 | -9.08 | -5.78 | -6.75 | -8.18 |
| CCOC(=O)CNC(=O)N1Cc2c(sc3c2CCCC3)-n2cccc2C1c1ccc(CC)cc1 (stereo not drawn) | -3.9 | 0 | -1.8 | -5.7 | 2.71 |
| Cn1c2c(c3ccccc31)C(C(=O)NCc1ccccc1)N(C1CCCCCC1)C(=O)CS2 (stereo not drawn) | 5.73 | 1.57 | 3.85 | 2.2 | 8.75 |
| Cc1noc(C)c1[S+](=O)([O-])N1CCc2nc(-c3ccccc3)nc(-c3ccc(Cl)cc3)c2C1 | -5.73 | -8.14 | -3.28 | -13.8 | -7.18 |
| CC1=CC(=O)C(C(C)C)=C/C1=N/OC(=O)c1ccccc1C | – | 1.19 | – | -17.4 | -7.5 |
| C=Cc1ccc(CSc2nnc3n(CCCOC(C)C)c(=O)c4cc(Cl)ccc4n23)cc1 | -3.69 | 0 | 1.04 | -6.37 | 2.84 |
| CC(C)n1c(=O)c2ccc(C(=O)NC3CCCCC3)cc2n2c(=O)n(Cc3ccccc3)nc12 | 0.601 | 2.69 | 5.4 | -0.04 | -2.26 |
| C=CCNC(=O)c1cnn2c1CN(C(=O)c1cccnc1)CC2 | -2.91 | -0.404 | -1.05 | 0.633 | -22.6 |
| CC1(C(=O)NC2CCCC2)Cn2cnc(C(=O)Nc3cccc(Cl)c3)c2C(=O)N1C1CC1 (stereo not drawn) | -2.46 | 0 | 9.59 | -10.3 | 2.78 |
| CCCn1c(=O)c2ccc(C(=O)NCC(C)C)cc2n2c(=O)n(CC(=O)Nc3cccc(C)c3)nc12 | 0.899 | 0 | 0.993 | 2.06 | 1.68 |
| CCC(C)OC(=O)C(C)Oc1ccc2c(=O)c(-c3ccc(OC)c(OC)c3)c(C(F)(F)F)oc2c1 (stereo not drawn) | -1.85 | 1.9 | 1.94 | -0.593 | -5.04 |
| CN(C)C(=O)C(CCN1CCC(O)(c2ccc(Cl)cc2)CC1)(c1ccccc1)c1ccccc1 | -4.58 | 6.5 | -21.3 | -12.5 | 7.86 |
| CCc1cc2c(cc3n2CC(C)(C(=O)NC2CCCCC2)N(Cc2cccc(OC)c2)C3=O)s1 (stereo not drawn) | 1.18 | 3.69 | 6.54 | 2.83 | -1.82 |
| Cc1noc(-c2cccs2)c1C(=O)NCc1ccccc1Cl | -12 | -18.2 | -3.43 | -17.8 | -9.41 |
| Cc1cccc(-c2nocc2CCC(=O)NCc2ccc(F)cc2F)c1 | -4.9 | -5.38 | -1.21 | -15.1 | -11.5 |
